Some of the results follow.

The test system of the experiment is PfHDP1 homeodomain (GST-tagged). The experiment is described as follows: gcPBM binding intensity (ln(normalized median fluorescence intensity)); higher = stronger DNA binding. A digest of the protocol: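 Using an Agilent 4 × 180k array, primer-extended double-stranded 36-bp intergenic genomic probes and negative controls were exposed for 1 h to GST-fused P. falciparum DNA-binding domains expressed in E. coli. Binding was carried out in 1× PBS with 1% milk, 0.2 mg/ml BSA, 0.5% salmon testes DNA and 0.03% Triton X-100, and protein was detected with Alexa488 anti-GST antibody and a 488 nm scan. Binding intensity is the highest Masliner-normalised natural-log median intensity across replicate spots of either probe orientation.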
On to “GATTATCTATCGCTTGAATGAAATGAAATCATGCAA [GTGCAC_negctrl_site471]”, for which the “gcPBM binding intensity (ln)” value was determined as 6.09. Regarding “AAATAAAATAAAAGCACACAAAATGTAAATAATTAT [CACACA_site2775]”, the “gcPBM binding intensity (ln)” value amounted to 6.63. The result for “AACATACCCATATACACACACACATAAATACAGATA [CACACA_site4744]” reads 7.09; that for “CAAAACAAGCAAAAATGTACTTGATAAATATTTTCT [XGTACX_site1776]”, 6.27.

Consider “ATGTTAATCATTAAAAATAAAGTTTAATATAAGAAT [XGTACX_negctrl_site155]”, for which the “gcPBM binding intensity (ln)” value turned out to be 6.49. The result for “ATTTAATTCTTTTGTTATAAAATTTTAGTATATATA [CACACA_negctrl_site1649]” reads 6.81; that for “AAATATAAAAAATATACACACATATAAAATCTATAT [CACACA_site7406]”, 6.33; that for “TTTTAAAAAAAACAAAAACATTGTCATATGGAAAAT [CACACA_negctrl_site297]”, 6.75. As for “GTATGTTAATTTAATTGTACAAAAAGATACACTGAT [XGTACX_site5710]”, the “gcPBM binding intensity (ln)” value was 6.81. To “AGGAACAATATATTTGCACACAAAAAATATATATTT [CACACA_site3316]” belongs 10.4; to “CAAAAAAAATTATACACACACACACCGATATATATA [CACACA_site4719]”, 6.97. Take “TTTATATATCAATACATTATGTATTAAGTCTTACAT [TGCATGCA_negctrl_site499]”: the “gcPBM binding intensity (ln)” value is 6.44.

Consider “GGTATATAAAAATATTGTACGAAAATATGCATATAA [XGTACX_site2501]”, for which the “gcPBM binding intensity (ln)” value amounted to 6.96. The result for “TTTTAATTAAAAAAATATATAATAAAATTAAATTAT [CACACA_negctrl_site95]” reads 6.05. The result for “ATTATTGTTGTTCATGTACACACTATAATAAAAGCA [CACACA_site4168]” reads 6.71; that for “TTTATATTGATATATACACACATATACATCCTATTT [CACACA_site7442]”, 6.64; that for “TTTTGCAATAATGTTGCACACTAAATAGTCATATAT [CACACA_site7977]”, 10.3. For “ATTAATTATTTCAATGCATGTGAACACTATATATAA [TGCATGCA_site600]”, the “gcPBM binding intensity (ln)” value was 7.04.

Consider “TAATTAAAATTATCTACACACCTTTATAAATATATA [CACACA_site3928]”, for which the “gcPBM binding intensity (ln)” value worked out at 6.26.

Consider “CTTATTAAAATTATTTGTACACAATATGTAAAAGTA [XGTACX_site7237]”, for which the “gcPBM binding intensity (ln)” value worked out at 6.47. The result for “AAAAAAAGTTGATACTGTACTCGTGCATTATGAATA [XGTACX_site5558]” reads 9.82; that for “AGGTATTTTCTTGTGACACACATATATATATATATT [CACACA_site2220]”, 7.15. To CATATAAAAAATATGGTGCAGTTTTTTTTTTTTTTT belongs 6.86; to “TATATATATAATGTTTGTACATATTAAATATATATG [XGTACX_site407]”, 7.53; to TAAATATTTTTATGGGTGCGTTCTTTAGCGCAATTT, 6.92. “TATATAAATATATATACACACAAAAAAAAAAAAAAA [CACACA_site1406]”: the “gcPBM binding intensity (ln)” value amounted to 6.49. To “TATATCTTAATATACACACACACATATATATATATA [CACACA_site4968]” belongs 9.29; to “TAAATGAAAACCATTAGTACTTATACTGATAAATGT [XGTACX_site763]”, 6.07. The result for “TAAATACAAAAATGTACACACATATATATATTTTTA [CACACA_site3503]” reads 6.38; that for “CGGCACATTATATATACACACATATAAATATATACA [CACACA_site8086]”, 6.83; that for “TAAATTTTAATATGCACACAAAATGTTATATTAAAA [CACACA_site4366]”, 9.86. The result for “TTGTATATTATATGTACACACAATAAGTTAATATAA [CACACA_site909]” reads 6.63; that for “ATAATATATTTTTGAACACACAATATAGATTTATAT [CACACA_site7857]”, 6.35; that for “TTCCTTTGTCCTAACTGTACTCAAATTTATTAGTGG [XGTACX_site226]”, 7.04. For “AAAAATAAAATAATATGTACATATATAATATATATA [XGTACX_site4786]”, the “gcPBM binding intensity (ln)” value stood at 7.09. As to “TATTCGAAAATTATTCAAATTATCTAACATATTATT [TGCATGCA_negctrl_site70]”, the “gcPBM binding intensity (ln)” value was 5.96. In the case of “TAATTTTTTAGACACACACACATATAAATATAAATA [CACACA_site6195]”, the “gcPBM binding intensity (ln)” value amounted to 6.88.

For the sequence “AATTGGAAACAACCAAAAAAATTAAAGTTGTATCCT [CACACA_negctrl_site565]”, the “gcPBM binding intensity (ln)” value was 6.06. The result for “ATTTATATAAAGAATGTACACACAGAAATGCACCCA [CACACA_site8715]” reads 10.7. As for “AATATTAAATGAAAAAGTACAAACAGTCCTATATTA [XGTACX_site1926]”, the “gcPBM binding intensity (ln)” value was found to be 6.05. Consider “AAAAAAAAAAAACATACACACAAATAAATACATACA [CACACA_site6073]”, for which the “gcPBM binding intensity (ln)” value turned out to be 6.8. To “CGTATGCACAAATTATGTACTTATATATATATATAT [XGTACX_site2348]” belongs 10.9; to “TATATATATAAGTGCACACTGAACCAAGAAAATTAT [CACACA_site3008]”, 9.71; to “CGGCACATTATATATACACACATATAAATAAATACA [CACACA_site4477]”, 6.74. To “GGATTGATAAGTGGTACACACATATAGATTATAGAT [CACACA_site7367]” belongs 6.43; to “AAAAAAAAAAAAAATTGTACATAATAAAAATATGGA [XGTACX_site3189]”, 6.35. The result for “TGTTTATTCTTTAAATATTATTCAAATACTACAAGT [CACACA_negctrl_site746]” reads 6.04; that for “AGCAACCTGAAAAAATTACTCTTTCTTAAACAAATT [XGTACX_negctrl_site266]”, 5.78.

In the case of “CACAGACACGGACACACACACACACCCATATATATA [CACACA_site4354]”, the “gcPBM binding intensity (ln)” value was found to be 7.17.

With “ATACAAGAATTAAACACACACAAAATATAAATTCTT [CACACA_site3005]”, the “gcPBM binding intensity (ln)” value was found to be 6.79. On to “TTAAGGATTAAGGTGTGTACATATAAATATTATATA [XGTACX_site7532]”, for which the “gcPBM binding intensity (ln)” value was 6.56.

For the sequence “ACCTGTAAAAATGTTTATATATATATATATATATAT [CACACA_negctrl_site1500]”, the “gcPBM binding intensity (ln)” value was 9.36. The result for “ATATATCAATATAAAAGTACAAACAAAAAATAATCA [XGTACX_site7559]” reads 6.82; that for “GATATATACTCCATCACACACCAAAAAGAAAAAAGA [CACACA_site7242]”, 6.67; that for “AATTAATGGGTACATACACACATATATACCTACATA [CACACA_site4572]”, 6.37. To “TCCATTTATAAATTAGCATGCAATCTATGTCTGATA [TGCATGCA_site1045]” belongs 6.72. To “ATCAAAAGAAAACACACACACATACAGATATATATA [CACACA_site5974]” belongs 6.88.

With “CCATCTAAACACAACTCGAGTTGGATGTGTGAACTT [XGTACX_negctrl_site83]”, the “gcPBM binding intensity (ln)” value came to 6.38. As for “ATATATATATATATATGTACATATTTCTCCATTTTT [XGTACX_site2869]”, the “gcPBM binding intensity (ln)” value turned out to be 9.34. To “AAACCGTGGGAGCACACACACACACCGACACATATA [CACACA_site4338]” belongs 6.97.

“GCATTGTCCATGCGCACACACTACTAGAATAATATG [CACACA_site5932]”: the “gcPBM binding intensity (ln)” value came out at 7.66. Turning to “TGCAATTGTAAAGGCGCACACATATATATATATATA [CACACA_site4894]”, the “gcPBM binding intensity (ln)” value was 9.24. Take “GTTTTTTATAATTGTAGTACAAGAAGATATTTTTAT [XGTACX_site5443]”: the “gcPBM binding intensity (ln)” value stood at 6.43. To “CATATTTTTATAAATTGTACGTATATTATATATATA [XGTACX_site1816]” belongs 7.14; to “GAGAAGACATTACACAGTACCCAGTAACTCTACGGA [XGTACX_site2000]”, 6.11.

On to “AAATTGGGGCTTGTTACACACTTAGTGCGAGTTCTA [CACACA_site582]”, for which the “gcPBM binding intensity (ln)” value was determined as 6.59.

Turning to “GATTATTATGTCCATGCATGTTAATATATATTAATT [TGCATGCA_site837]”, the “gcPBM binding intensity (ln)” value was 7.13.

“GAAATTTTATTTCGGCGGACAAATGTATACTTTCTT [XGTACX_site4238]”: the “gcPBM binding intensity (ln)” value was determined as 6.13.

For “TTTTAAAAAACAAACACACACGTAGAAAAAAAAAAA [CACACA_site4608]”, the “gcPBM binding intensity (ln)” value turned out to be 6.51. With “AAAATATATATAAATGCATGCATAATGAAATATATA [TGCATGCA_site39]”, the “gcPBM binding intensity (ln)” value was 6.83. For “CTGTATAAAACCAATGCATGTAAATATATTAATATA [TGCATGCA_site511]”, the “gcPBM binding intensity (ln)” value was 7.14. To “TGAAAAGGAAATTGTTGTACATATGTTTCTTCCTAA [XGTACX_site3932]” belongs 6.25. Consider “AATAGCAATTTGGGGTGTACACACACCTTATTTAAA [XGTACX_site2234]”, for which the “gcPBM binding intensity (ln)” value is 6.36.

As to “CCATTATATCTAAGTACACACATTAATTTTTTTTTT [CACACA_site6115]”, the “gcPBM binding intensity (ln)” value was found to be 6.58. For “TATATATAAATATTCAGTACATAGTGCTATTAAGTG [XGTACX_site1979]”, the “gcPBM binding intensity (ln)” value amounted to 6.7. To “AGAAATTAATCGAGGTGTACGTACATCCAAATATAT [XGTACX_site7650]” belongs 6.86; to “ATATATTTAACAAGATGTACAATTTTATAAAAAATA [XGTACX_site2351]”, 6.41. As for “TTTTTATAAAAAAATAGTACTCGTCTAATCTTATGT [XGTACX_site8532]”, the “gcPBM binding intensity (ln)” value was 6.41. On to “ATACATCAAGGACACACACACACACGCACACGCACA [CACACA_site6310]”, for which the “gcPBM binding intensity (ln)” value is 7.54.

Regarding “TTATGATGGTCTTTATAAGGGCACATTAAATTCGGC [TGCATGCA_negctrl_site166]”, the “gcPBM binding intensity (ln)” value is 6.46. To “AAACTATTCACTATAATACATTAGAAGTGAATAAAA [TGCATGCA_negctrl_site498]” belongs 6.21. Turning to “ATCATTTTTAAAGGAACACACAAAAAAAGTTATAAT [CACACA_site6761]”, the “gcPBM binding intensity (ln)” value turned out to be 6.86. The result for “TATATATATATATATACACACAAAAAAATAAATTCT [CACACA_site98]” reads 9.33; that for “ATTTATTTTAATAATTGTACATGTTATTTTATATAT [XGTACX_site2667]”, 6.3; that for “TACTTTTCATCTTCTTAACACACAAAAAAAAAAAAA [CACACA_site9290]”, 6.53.

Consider “ACAAGGAATATAAAAAGTACATAAAATACATAAAAA [XGTACX_site1217]”, for which the “gcPBM binding intensity (ln)” value worked out at 6.56.

As for “CCATTTACATTGTGAAGTACTAAAAAAAAATGTAGA [XGTACX_site7882]”, the “gcPBM binding intensity (ln)” value came out at 6.87.

In the case of “ATATAAATATAAATATATATGTATAAATATAAATAT [CACACA_negctrl_site247]”, the “gcPBM binding intensity (ln)” value came to 6.15.

The values are drawn from the supplement of paper PMC11417369.
